Measured values published in PMC5469273, “Discovery of Novel Small-Molecule Inhibitors of LIM Domain Kinase for Inhibiting HIV-1” (Journal of Virology, 2017).

Test system: resting CD4 T cells
Assay: Surface staining of CD25 and CD69 after CD3/CD28 activation
Format: cell-based
Conditions: short drug treatment

SMILES: COC(=O)c1ccc2[nH]c(C3CCN(c4ncnc5[nH]cc(Cl)c45)CC3)nc2c1 [Compound R10015, Methyl 2-(1-(5-chloro-7H-pyrrolo[2,3-d]pyrimidin-4-yl)piperidin-4-yl)-1H-benzo[d]imidazole-5-carboxylate]
- T cell function (surface expression of CD25 or CD69 after activation): did not inhibit
